Laboratory results as given in the supplement of paper PMC12217912.
Some of the results follow. Sequences were assembled here from the parent chain. Inactive controls read about 0.05.

B1: TEV protease; numbered along this chain (parent)
chain: MGESLFKGPRDYNPISSSICHLTNESDGHTTSLYGIGFGPFIITNKHLFRRNNGTLVVQSLHGVFKVKDTTTLQQHLVDGRDMIIIRMPKDFPPFPQKLKFREPQREERICLVTTNFQTKSMSSMVSDTSCTFPSGDGIFWKHWIQTKDGQCGSPLVSTRDGFIVGIHSASNFTNTNNYFTSVPKNFMELLTNQEAQQWVSGWRLNADSVLWGGHKVFMVKPEEPFQPVKEATQL

Variants of: B1
Assay: raw area under fraction-flipped curve 0-4 h after induction (AUC4h, not background-subtracted), DNA-recorder readout of cleavage of the substrate (dimensionless); higher = more cleavage of the substrate by the protease variant
Settings: temperature: 34 °C; time window: 0-4 h after rhamnose induction
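Also: Bxb1 expression induced with 0.2% (w/v) L-rhamnose at OD600 near 0.5, cultures sampled hourly, flipped fraction per protease–substrate barcode pair counted by paired-end Illumina sequencing.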

Variant	area with substrate ENLCFQS	area with substrate ENLDFQS	area with substrate ENLFFQS	area with substrate ENLGFQS	area with substrate ENLHFQS	area with substrate ENLKFQS	area with substrate ENLMFQS	area with substrate ENLNFQS	area with substrate ENLRFQS	area with substrate ENLWFQS	area with substrate ENLEFQS	area with substrate ENLPFQS	area with substrate ENLSFQS	area with substrate ENLLFQS	area with substrate ENLQFQS	area with substrate ENLVFQS	area with substrate ENLIFQS	area with substrate ENLTFQS
MGESLFKGPRDYNPISSSICHLTNESDGHTTSLYGIGFGPFIITNKHLFRRNNGTAVVQSLHGVFKVKDTTTLQQHLVDGRDMIIIRMPKDFPPFPQKLKFREPQREERICLVTTNFQTKSMSSMVSDTSCTFPSGDGIFWKHWIQTKDGQCGSPLVSTRDGFIVGIHSASNFTNTNNYFTSVPKNFMELLTNQEAQQWVSGWRLNADSVLWGGHKVFMVKPEEPFQPVKEATQL [L56A]	0.0502	0.0497	0.0661	0.0584	0.0577	0.0633	0.0682	0.0506	0.0659	0.0536								
MGESLFKGPRDYNPISSSICHLTNESDGHTTSLYGIGFGPFIITNKHLFRRNNGTLRVQSLHGVFKVKDTTTLQQHLVDGRDMIIIRMPKDFPPFPQKLKFREPQREERICLVTTNFQTKSMSSMVSDTSCTFPSGDGIFWKHWIQTKDGQCGSPLVSTRDGFIVGIHSASNFTNTNNYFTSVPKNFMELLTNQEAQQWVSGWRLNADSVLWGGHKVFMVKPEEPFQPVKEATQL [V57R]	0.0744		0.0826			0.0781		0.0733	0.0863	0.0719	0.0612	0.0591						
MGESLFKGPRDYNPISSSICHLTNESDGHTTSLYGIGFGPFIITNKHLFRRNNGTLVVQSLHGHFKVKDTTTLQQHLVDGRDMIIIRMPKDFPPFPQKLKFREPQREERICLVTTNFQTKSMSSMVSDTSCTFPSGDGIFWKHWIQTKDGQCGSPLVSTRDGFIVGIHSASNFTNTNNYFTSVPKNFMELLTNQEAQQWVSGWRLNADSVLWGGHKVFMVKPEEPFQPVKEATQL [V64H]	0.0509	0.0611			0.0716	0.0656						0.0516						
MGESLFKGPRDYNPISSSICHLTNESDGHTTSLYGIGFGPFIITNKHLFRRNNGTLVVQSLHGIFKVKDTTTLQQHLVDGRDMIIIRMPKDFPPFPQKLKFREPQREERICLVTTNFQTKSMSSMVSDTSCTFPSGDGIFWKHWIQTKDGQCGSPLVSTRDGFIVGIHSASNFTNTNNYFTSVPKNFMELLTNQEAQQWVSGWRLNADSVLWGGHKVFMVKPEEPFQPVKEATQL [V64I]	0.078	0.0654	0.0843		0.0697		0.0818	0.0688			0.0768		0.0608					
MGESLFKGPRDYNPISSSICHLTNESDGHTTSLYGIGFGPFIITNKHLFRRNNGTLVVQSLHGVAKVKDTTTLQQHLVDGRDMIIIRMPKDFPPFPQKLKFREPQREERICLVTTNFQTKSMSSMVSDTSCTFPSGDGIFWKHWIQTKDGQCGSPLVSTRDGFIVGIHSASNFTNTNNYFTSVPKNFMELLTNQEAQQWVSGWRLNADSVLWGGHKVFMVKPEEPFQPVKEATQL [F65A]	0.0708	0.047	0.0904		0.0683	0.081		0.0695					0.0555	0.0699	0.0824			
MGESLFKGPRDYNPISSSICHLTNESDGHTTSLYGIGFGPFIITNKHLFRRNNGTLVVQSLHGVFKVKDTTKLQQHLVDGRDMIIIRMPKDFPPFPQKLKFREPQREERICLVTTNFQTKSMSSMVSDTSCTFPSGDGIFWKHWIQTKDGQCGSPLVSTRDGFIVGIHSASNFTNTNNYFTSVPKNFMELLTNQEAQQWVSGWRLNADSVLWGGHKVFMVKPEEPFQPVKEATQL [T72K]	0.0713	0.0662	0.0931		0.0728	0.0862	0.0616	0.0529	0.0694	0.0617	0.0686	0.0528	0.0756	0.0797	0.0673	0.0876		
MGESLFKGPRDYNPISSSICHLTNESDGHTTSLYGIGFGPFIITNKHLFRRNNGTLVVQSLHGVFKVKDTTTLQQHPVDGRDMIIIRMPKDFPPFPQKLKFREPQREERICLVTTNFQTKSMSSMVSDTSCTFPSGDGIFWKHWIQTKDGQCGSPLVSTRDGFIVGIHSASNFTNTNNYFTSVPKNFMELLTNQEAQQWVSGWRLNADSVLWGGHKVFMVKPEEPFQPVKEATQL [L77P]	0.0605	0.0618	0.0821							0.0502	0.0992		0.0753				0.042	
MGESLFKGPRDYNPISSSICHLTNESDGHTTSLYGIGFGPFIITNKHLFRRNNGTLVVQSLHGVFKVKDTTTLQQHLVDVRDMIIIRMPKDFPPFPQKLKFREPQREERICLVTTNFQTKSMSSMVSDTSCTFPSGDGIFWKHWIQTKDGQCGSPLVSTRDGFIVGIHSASNFTNTNNYFTSVPKNFMELLTNQEAQQWVSGWRLNADSVLWGGHKVFMVKPEEPFQPVKEATQL [G80V]	0.0416	0.0558	0.0866		0.0597	0.072	0.0682	0.0686	0.0685	0.0705		0.0585			0.0696	0.0756		0.0669
MGESLFKGPRDYNPISSSICHLTNESDGHTTSLYGIGFGPFIITNKHLFRRNNGTLVVQSLHGVFKVKDTTTLQQHLVDGRDMIIIRMPKDFPPFAQKLKFREPQREERICLVTTNFQTKSMSSMVSDTSCTFPSGDGIFWKHWIQTKDGQCGSPLVSTRDGFIVGIHSASNFTNTNNYFTSVPKNFMELLTNQEAQQWVSGWRLNADSVLWGGHKVFMVKPEEPFQPVKEATQL [P96A]	0.0746	0.0619			0.06			0.0605		0.0516	0.0793		0.0593	0.0738	0.0728	0.0915		
MGESLFKGPRDYNPISSSICHLTNESDGHTTSLYGIGFGPFIITNKHLFRRNNGTLVVQSLHGVFKVKDTTTLQQHLVDGRDMIIIRMPKDFPPFCQKLKFREPQREERICLVTTNFQTKSMSSMVSDTSCTFPSGDGIFWKHWIQTKDGQCGSPLVSTRDGFIVGIHSASNFTNTNNYFTSVPKNFMELLTNQEAQQWVSGWRLNADSVLWGGHKVFMVKPEEPFQPVKEATQL [P96C]	0.0764	0.0519	0.0881		0.0615	0.0653	0.0882	0.0595	0.0764	0.0543	0.0741	0.0507	0.0563		0.0727			
MGESLFKGPRDYNPISSSICHLTNESDGHTTSLYGIGFGPFIITNKHLFRRNNGTLVVQSLHGVFKVKDTTTLQQHLVDGRDMIIIRMPKDFPPFRQKLKFREPQREERICLVTTNFQTKSMSSMVSDTSCTFPSGDGIFWKHWIQTKDGQCGSPLVSTRDGFIVGIHSASNFTNTNNYFTSVPKNFMELLTNQEAQQWVSGWRLNADSVLWGGHKVFMVKPEEPFQPVKEATQL [P96R]	0.0693	0.0716	0.0942	0.061	0.0885	0.0714				0.0832						0.0858		
MGESLFKGPRDYNPISSSICHLTNESDGHTTSLYGIGFGPFIITNKHLFRRNNGTLVVQSLHGVFKVKDTTTLQQHLVDGRDMIIIRMPKDFPPFPQKLKWREPQREERICLVTTNFQTKSMSSMVSDTSCTFPSGDGIFWKHWIQTKDGQCGSPLVSTRDGFIVGIHSASNFTNTNNYFTSVPKNFMELLTNQEAQQWVSGWRLNADSVLWGGHKVFMVKPEEPFQPVKEATQL [F101W]	0.0607	0.0708	0.101	0.0651		0.0849		0.0573	0.0763			0.0848	0.0641	0.0728				
MGESLFKGPRDYNPISSSICHLTNESDGHTTSLYGIGFGPFIITNKHLFRRNNGTLVVQSLHGVFKVKDTTTLQQHLVDGRDMIIIRMPKDFPPFPQKLKFGEPQREERICLVTTNFQTKSMSSMVSDTSCTFPSGDGIFWKHWIQTKDGQCGSPLVSTRDGFIVGIHSASNFTNTNNYFTSVPKNFMELLTNQEAQQWVSGWRLNADSVLWGGHKVFMVKPEEPFQPVKEATQL [R102G]	0.0559	0.0222	0.0585		0.0596	0.0602		0.051	0.0532	0.0541	0.0543	0.0625	0.0561	0.0549	0.0546	0.0557		
MGESLFKGPRDYNPISSSICHLTNESDGHTTSLYGIGFGPFIITNKHLFRRNNGTLVVQSLHGVFKVKDTTTLQQHLVDGRDMIIIRMPKDFPPFPQKLKFYEPQREERICLVTTNFQTKSMSSMVSDTSCTFPSGDGIFWKHWIQTKDGQCGSPLVSTRDGFIVGIHSASNFTNTNNYFTSVPKNFMELLTNQEAQQWVSGWRLNADSVLWGGHKVFMVKPEEPFQPVKEATQL [R102Y]	0.0338	0.048	0.0394						0.0381	0.0478								
MGESLFKGPRDYNPISSSICHLTNESDGHTTSLYGIGFGPFIITNKHLFRRNNGTLVVQSLHGVFKVKDTTTLQQHLVDGRDMIIIRMPKDFPPFPQKLKFRECQREERICLVTTNFQTKSMSSMVSDTSCTFPSGDGIFWKHWIQTKDGQCGSPLVSTRDGFIVGIHSASNFTNTNNYFTSVPKNFMELLTNQEAQQWVSGWRLNADSVLWGGHKVFMVKPEEPFQPVKEATQL [P104C]	0.0797	0.0567	0.0705	0.0611	0.0592	0.0629	0.0551	0.0607	0.065	0.0574	0.0599	0.0583	0.0569	0.0928	0.0687		0.075	0.0649
MGESLFKGPRDYNPISSSICHLTNESDGHTTSLYGIGFGPFIITNKHLFRRNNGTLVVQSLHGVFKVKDTTTLQQHLVDGRDMIIIRMPKDFPPFPQKLKFREKQREERICLVTTNFQTKSMSSMVSDTSCTFPSGDGIFWKHWIQTKDGQCGSPLVSTRDGFIVGIHSASNFTNTNNYFTSVPKNFMELLTNQEAQQWVSGWRLNADSVLWGGHKVFMVKPEEPFQPVKEATQL [P104K]	0.064	0.0654	0.0673			0.0324	0.0519			0.0427	0.0237	0.0382	0.0365	0.0536			0.0466	
MGESLFKGPRDYNPISSSICHLTNESDGHTTSLYGIGFGPFIITNKHLFRRNNGTLVVQSLHGVFKVKDTTTLQQHLVDGRDMIIIRMPKDFPPFPQKLKFREPQQEERICLVTTNFQTKSMSSMVSDTSCTFPSGDGIFWKHWIQTKDGQCGSPLVSTRDGFIVGIHSASNFTNTNNYFTSVPKNFMELLTNQEAQQWVSGWRLNADSVLWGGHKVFMVKPEEPFQPVKEATQL [R106Q]	0.0524	0.0581	0.0924		0.0531	0.0791		0.0703	0.0914	0.0502	0.0683	0.0552	0.0504	0.092	0.0688	0.0784		
MGESLFKGPRDYNPISSSICHLTNESDGHTTSLYGIGFGPFIITNKHLFRRNNGTLVVQSLHGVFKVKDTTTLQQHLVDGRDMIIIRMPKDFPPFPQKLKFREPQREQRICLVTTNFQTKSMSSMVSDTSCTFPSGDGIFWKHWIQTKDGQCGSPLVSTRDGFIVGIHSASNFTNTNNYFTSVPKNFMELLTNQEAQQWVSGWRLNADSVLWGGHKVFMVKPEEPFQPVKEATQL [E108Q]	0.0483	0.0499	0.0636		0.057	0.0666	0.0571	0.0581	0.0704	0.0553	0.0462	0.0655	0.0576	0.0651	0.0599			
MGESLFKGPRDYNPISSSICHLTNESDGHTTSLYGIGFGPFIITNKHLFRRNNGTLVVQSLHGVFKVKDTTTLQQHLVDGRDMIIIRMPKDFPPFPQKLKFREPQREERICDVTTNFQTKSMSSMVSDTSCTFPSGDGIFWKHWIQTKDGQCGSPLVSTRDGFIVGIHSASNFTNTNNYFTSVPKNFMELLTNQEAQQWVSGWRLNADSVLWGGHKVFMVKPEEPFQPVKEATQL [L112D]	0.0527	0.0615						0.0522		0.0495	0.0577	0.0585		0.0297	0.0575			0.0692
